# Experimental data from article PMC4242493.
# This is one part of the list. The list includes weakly bound sequences.
# Biological target: MaxL homodimer (UniProt P61244)
# Test: universal protein-binding microarray (PBM)
# Conditions: PBS-based mixture, 10 nM His-tagged protein dimer, 2% milk, 200 ng/uL BSA, 50 ng/uL salmon testes DNA, 0.02% TX-100; detection with Alexa 488 anti-His …; high values mean tight binding; most listed sequences are background and not binding sites; double strand, one strand shown
# UniProt P61244, sequence (P61244 whole entry): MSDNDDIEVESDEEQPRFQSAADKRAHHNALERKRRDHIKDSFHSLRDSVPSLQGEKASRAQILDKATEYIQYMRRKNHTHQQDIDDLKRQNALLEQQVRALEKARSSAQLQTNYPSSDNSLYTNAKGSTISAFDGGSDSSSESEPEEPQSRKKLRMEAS
row,Sequence,binding signal (normalized occupancy)
1,ATTTAGGC,0.0782
2,ACAATGCT,0.0805
3,CCTTAATC,0.0732
4,CGAAATGA,0.068
5,ATGAGCGG,0.0799
6,AGGGTATC,0.0757
7,CGTGACGC,0.0812
8,CACCGAAC,0.073
9,CCTCCTAC,0.0749
10,CCTATACC,0.0768
11,ACTGTCGA,0.0731
12,GAAGAAGC,0.0695
13,CTATCACC,0.0808
14,CACCAGAG,0.0693
15,AAGGCTCA,0.0715
16,CATGGGGG,0.0995
17,GGCCTAAC,0.0765
18,CTTCGACC,0.066
19,GGCTCGAA,0.0686
20,ATCATGAG,0.09
21,GACACCAA,0.0751
22,AAAATGAT,0.0822

row,Sequence,binding signal (normalized occupancy)
1,AATGAGTG,0.08
2,ACACTCAG,0.0748
3,CATCTGGC,0.0755
4,GGGATCTA,0.0799
5,TGCTGCCA,0.0769
6,CTAGAGAA,0.0731
7,GCGTGACA,0.103
8,AAGCGAAG,0.0668
9,CCTGTCCC,0.0721
10,ATACGCAA,0.0775
11,CGTCGCAC,0.0746
12,AATGTACA,0.0818
13,CACAGTAC,0.0755
14,GGCCCAAA,0.0686
15,CCTCACTC,0.075
16,CGGGGATA,0.0797
17,CATCCCAC,0.0809
18,ATGAGGTC,0.0876
19,CCATCCGA,0.0852
20,ACCGACAC,0.0792
21,GGGTCCAC,0.0802
22,AAGCCCGC,0.0656

row,Sequence,binding signal (normalized occupancy)
1,AGTTAGAG,0.0767
2,CATGGCTA,0.0864
3,CACTTCAC,0.0766
4,GAACATCA,0.0813
5,GTCGAGGA,0.0733
6,CGATCCGA,0.0688
7,GGATAAAA,0.0761
8,CCCCTACA,0.0778
9,AACTACAA,0.0724
10,CCTCTCAA,0.0706
11,GCGTCCCA,0.0762
12,CTCGGCAC,0.0791
13,ACATAGAC,0.0779
14,AACAAGAA,0.0753
15,GACGACTA,0.077
16,GTGAGAAA,0.0796
17,AAAAGACA,0.0739
18,TGGGTCAA,0.0772
19,TCCAACGA,0.0775
20,AGGACACC,0.069
21,GGTCCAAC,0.0757
22,CATGGATA,0.0917

row,Sequence,binding signal (normalized occupancy)
1,CAATCTCA,0.0789
2,AAGGGCGA,0.0714
3,CCCCAAGC,0.0762
4,CTGCCCTA,0.0679
5,GGTCCCAC,0.0772
6,CAGAACTA,0.0728
7,ACCCCTTC,0.0827
8,CGGCCACA,0.075
9,GAAGCCGA,0.0676
10,AGAGCGAT,0.0711
11,GAATGCAC,0.0772
12,AGTAGCTG,0.0691
13,CACCTATG,0.0739
14,AATTCACC,0.0742
15,GCGGTCAA,0.0762
16,TATCATAA,0.0897
17,AAGGTATT,0.0755
18,GTGTAGTA,0.0864
19,AGCAAGGA,0.0721
20,ACGTCATA,0.0787
21,CGTGCAGC,0.0858
22,GAAGTATC,0.0757

row,Sequence,binding signal (normalized occupancy)
1,TCGGGAAA,0.0705
2,ATCTCGGC,0.0678
3,ATGGAGGC,0.0802
4,GCGAACCC,0.0753
5,CATAAGGA,0.0837
6,AAATTATA,0.0808
7,CGGCAATA,0.0748
8,AAACGCCA,0.0743
9,AAAGCATC,0.0796
10,AGATAGCA,0.0768
11,CACCGAGC,0.0669
12,CTTTGCAA,0.067
13,ATAACGGC,0.0766
14,CGGTAAGA,0.0693
15,CAGTGGCG,0.0736
16,AATCCCAT,0.0807
17,TCCCACAA,0.0789
18,CGGGACTC,0.0712
19,AATACCGG,0.0681
20,ATAGTCAC,0.081
21,AAGCTGCA,0.0738
22,CGGCGTAC,0.0726
